The whole screen tested about 420,000 compounds, of which about 50,000 (12%) were called active. Inconclusive means that the source gave no clear call. Such entries were picked first, then a sample of the others. Calls follow the shape of the dose curve; as a rule, active = well fitted inhibition curve with a large enough effect; inconclusive = small, poorly fitted or top-dose-only effect; inactive = flat fitted curve, though single readings scatter. No potency is given beside an inconclusive call; the fits are too rough.
Experiment: qHTS for Inhibitors of human tyrosyl-DNA phosphodiesterase 1 (TDP1): qHTS in cells in presence of CPT; also: nearly all actives have a fitted effect of over 55% in size
Conditions: chicken DT40 Tdp1-/-;hTDP1 cells + 20 nM CPT, ATP luminescence, 48 h; activity change, negative = growth inhibition: at 46.2 µM (top of the series) unless noted
In short: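 Chicken DT40 Tdp1-/- cells stably complemented with human TDP1 were seeded at 400 cells/well in medium containing 20 nM camptothecin, exposed to pin-transferred compounds, and grown at 37 °C for at least 48 hr. Viability was read as ATP luminescence.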
% is scaled to controls: 0 for no effect and ±100 for the full control effect; potency is read from the fitted curve at half-maximal effect; tags tell the direction and shape of the fitted curve.

| Structure (SMILES) | activity change, negative = growth inhibition | Potency |
| --- | --- | --- |
| O=C(NC(=S)NCCO)c1cn(-c2ccccc2)nc1-c1ccccc1 | inactive: -22% |  |
| COc1cc(C(=O)NNC(=O)CN2C(=O)NC(C)(c3ccc(C)cc3)C2=O)cc(OC)c1OC (centres undefined) | inactive: 8.57% |  |
| COc1cccc(-c2nnc(SCc3ccc(C#N)cc3)n2Cc2ccco2)c1 |  | inconclusive [inhibitor, single point] |
| Cc1c(C(=O)NCc2cccc([N+](=O)[O-])c2)sc(=O)n1Cc1ccccc1F |  | inconclusive [inhibitor, single point] |
| Cc1ccc(S(=O)(=O)N2CCN(C(=O)COc3ccc(NC(=O)c4ccco4)cc3)CC2)cc1 |  | inconclusive [inhibitor, single point] |
| CCOc1ccc(Cl)cc1-c1cc(C(=O)Nc2ccc(OC)cc2OC)[nH]n1 |  | inconclusive [inhibitor, single point] |
| O=C1c2ccc(-c3ccc(F)cc3OCc3ccccc3)cc2S(=O)(=O)c2cccc(C(=O)N3CCCC3)c21 |  | active: 13 µM |
| CCN(CC)C(=O)c1ccc(Nc2nnc(-c3ccc(O)cc3)c3ccccc23)cc1 |  | inconclusive [inhibitor, single point] |
| CCOC(=O)c1ccc(-c2c(-c3ccc(OC)cc3)oc(=O)c3cc(OC)c(OC)cc23)cc1F |  | active: 20.6 µM |
| CCOc1cc(/C=N/N=C(/N)c2nonc2N)cc(Br)c1OCc1ccc(Cl)cc1 |  | inconclusive [inhibitor, single point] |
| CCCCn1c2nc3ccccc3nc2c2c(=O)n(C(C)CC)cnc21 (centres undefined) |  | active: 10.3 µM |
| COc1ccc(OC)c(S(=O)(=O)N2C(C)CCCC2C)c1 (centres undefined) |  | inconclusive [inhibitor, single point] |
| COc1ccccc1Cc1c(C2CCCCC2)nc2ccc(Cl)cn12 |  | active: 23.1 µM |
| CN1OC[C@@H]2CN(Cc3cc(Cl)cc(Cl)c3)[C@H](c3cccc(Oc4ccccc4)c3)C[C@@H]21 |  | inconclusive [inhibitor, single point] |
| Cc1cc(Cl)c2oc(C(=O)NC3CCC(O)CC3)c(C)c2c1 (centres undefined) |  | inconclusive [inhibitor, single point] |
| CCC(=O)N1CCN(c2cc(N3CCCC3)c(F)cc2[N+](=O)[O-])CC1 | inactive: -16.7% |  |
| CCOc1ccccc1NC(=O)/C(C#N)=C/c1c(C)nn(-c2ccccc2)c1Cl |  | inconclusive [inhibitor, single point] |
| COc1cc(C2Nc3ccccc3-c3cc(C)nn32)ccc1O (centres undefined) |  | inconclusive [inhibitor, single point] |
| Cc1cccc(N2C(=N)SCC2=O)c1C | inactive: -21.7% |  |
| C=CCNc1nc2c(c(=O)n(C)c(=O)n2C)n1Cc1ccc(F)cc1 |  | active: 2.31 µM |
| CCC(C)Nc1nc2c(C)cccn2c(=O)c1C=Nc1ccc(OC)cc1 (centres undefined) |  | inconclusive [inhibitor, single point] |
| N#C/C(=C(/O)CSc1ncn[nH]1)c1nc2ccccc2[nH]1 | inactive: -16.8% |  |
| Cc1nn(CCCC(=O)Nc2cccnc2)c(C)c1[N+](=O)[O-] | inactive: 7.84% |  |
| O=C1c2ccccc2NC(c2cccs2)N1O (centres undefined) | inactive: -0.797% |  |
| O=C(CCCn1c2ccccc2c(=O)c2ccccc21)Nc1cccc(Cl)c1 |  | inconclusive [inhibitor, single point] |

| Structure (SMILES) | activity change, negative = growth inhibition | Potency |
| --- | --- | --- |
| CCOC(=O)c1nnc(-c2ccc(C)cc2)nc1Sc1ccccc1Cl |  | inconclusive [inhibitor, single point] |
| Cc1ccc(NC(=O)CN2C(=O)C3CCCCN3C(=O)c3ccccc32)cc1 (centres undefined) | inactive: -13.3% |  |
| O=S(=O)(c1ccc(Br)s1)N1CCN(c2cccc(C(F)(F)F)c2)CC1 |  | inconclusive [inhibitor, single point] |
| COc1cc(OC)c(/C=C/c2ccc3ccccc3[n+]2C)c(OC)c1 |  | active: 0.1 µM |
| CCCNC(=O)c1cc(C2CCCCN2C(=O)CCc2ccccc2)on1 (centres undefined) | inactive: 0.796% |  |
| O=C1NC(=O)N2CCSC2(Cc2ccccc2)N1 (centres undefined) | inconclusive: -34.9% [inhibitor] |  |
| O=C(NCCc1ccc(Cl)cc1)c1c2c(nc3ccccc13)C(=O)N(C1CCCCC1)C2 |  | active: 14.6 µM |
| CC(C)n1nc(C(=O)Nc2nc3ccccc3[nH]2)c2ccccc2c1=O |  | inconclusive [inhibitor, single point] |
| Cc1ccc(C2=NS(=O)(=O)N(C)C(C(=O)Nc3ccc4c(c3)OCO4)=C2)cc1 |  | inconclusive [inhibitor, single point] |
| Cc1csc2nc(COC(=O)c3ccccc3NC(=O)c3cccc(Br)c3)cc(=O)n12 |  | active: 18.4 µM |
| COc1ccc(CCNC(=O)CCSc2nc(-c3ccco3)cc(C(F)(F)F)n2)cc1OC |  | active: 14.6 µM |
| O=C(CCCCCNc1nc(=S)[nH]c2ccccc12)NCCc1ccccc1 |  | inconclusive [inhibitor, single point] |
| COCCn1c(SCC(=O)Nc2cc(Cl)ccc2OC)nc2c([nH]c3ccccc32)c1=O | inactive: -19.1% |  |
| Cc1ccc(N2CCN(CCc3nc4cc(NS(C)(=O)=O)ccc4n3C)CC2)cc1 | inactive: -28.4% |  |
| Clc1ccc(-c2nc3ccccn3c2CN2CCCCC2)cc1 |  | inconclusive [inhibitor, single point] |
| COc1ccc(S(=O)(=O)N2CCN(C(=O)COc3ccc(C)c(C)c3)CC2)cc1OC |  | inconclusive [inhibitor, single point] |
| Clc1ccc(-c2nc(C3CCCCC3)no2)cc1 | inactive: 6.62% |  |
| CNS(=O)(=O)c1ccc(NC(=S)Nc2ccc3c(c2)OCO3)cc1 | inactive: 6.34% |  |
| Cc1c(C)n(C)c2ccc([N+](=O)[O-])cc12 | inactive: 4.42% |  |
| CC(=O)c1cccc(S(=O)(=O)Nc2cccc(S(=O)(=O)NC3=NCCC3)c2)c1 | inactive: -5.03% |  |
| O=[N+]([O-])c1ccc2c(c1)/C(=N\O)c1ccccc1-2 | inconclusive: -33.5% [inhibitor] |  |
| COc1cc(C=O)cc(OC)c1OS(=O)(=O)c1ccc(NC(C)=O)cc1 |  | inconclusive [inhibitor, single point] |
| COc1ccc(C(=O)NC(=S)Nc2ccccc2N2CCOCC2)cc1Br |  | inconclusive [inhibitor, single point] |
| O=C(NCC1COc2ccccc2O1)C1(c2ccccc2)CCCC1 (centres undefined) |  | inconclusive [inhibitor, single point] |
| CSCc1ccc(C(=O)OCc2nc3ccccc3s2)o1 |  | inconclusive [inhibitor, single point] |

| Structure (SMILES) | activity change, negative = growth inhibition | Potency |
| --- | --- | --- |
| CCn1cc(C(=O)NCc2ccc3c(c2)OCO3)c(=O)c2cc(F)c(N3CCN(C)CC3)cc21 |  | inconclusive [inhibitor, single point] |
| COc1ccc(N(C(=O)Cc2cccs2)C2C=CS(=O)(=O)C2)cc1 (centres undefined) | inactive: -12.3% |  |
| CCOc1ccc(C(=O)NCc2ccc3c(c2)OCO3)cc1 | inconclusive: -30.9% [inhibitor] |  |
| CCOc1ccc(N(CC(=O)NCC2CCCO2)C(=O)CCC(=O)Nc2nccs2)cc1 (centres undefined) | inactive: -1.25% |  |
| CCC1CN(C(=O)Nc2ccccc2F)c2cc(C)ccc2O1 (centres undefined) |  | inconclusive [inhibitor, single point] |
| Cc1nn(Cc2ccc(Cl)cc2Cl)c(C)c1NC(=O)CCl |  | active: 14.6 µM |
| COc1ccc(C=O)cc1CN1CCCN(Cc2ccccc2F)S1(=O)=O |  | inconclusive [inhibitor, single point] |
| CCCn1c(SCC(=O)N2CCN(c3ccc(OC)cc3)CC2)nc2c1c(=O)n(C)c(=O)n2C |  | active: 18.4 µM |
| CC1Cc2ccccc2N1CC(=O)NC(=O)NCc1ccccc1 (centres undefined) | inactive: 1.35% |  |
| O=C(NCc1ccc2c(c1)OCO2)C(=O)Nc1ccccc1 | inactive: 2.16% |  |
| COC(=O)c1c(C)nn(-c2ccc(OC(F)(F)F)cc2)c1-c1snnc1C |  | inconclusive [inhibitor, single point] |
| COCCCN1C(=O)C(=O)/C(=C(/O)c2ccc(OC)cc2)C1c1cccc(OC)c1 (centres undefined) | inactive: 12.7% |  |
| O=C(COc1ccc(Cl)cc1Cl)NC(=O)N1CCCCC1 | inactive: 9.48% |  |
| c1cc2cc(CNc3nc(NCC4CC4)nc4ccsc34)ccc2o1 |  | active: 16.4 µM |
| COCCNC(=S)N(CCc1c(C)[nH]c2ccccc12)Cc1ccco1 | inactive: -29.1% |  |
| O=C(Nc1ccccc1C(=O)N1CCOCC1)c1cccc(S(=O)(=O)N2CCCC2)c1 | inactive: -2.06% |  |
| COc1cc(C)ccc1OCCSc1nc2ccc(NC(=O)c3ccco3)cc2s1 |  | active: 23.1 µM |
| CCOc1ccc(NC(=O)CN(C)C(=O)c2cccnc2Sc2ccc(Cl)cc2)cc1OCC |  | inconclusive [inhibitor, single point] |
| Cc1csc(NC(=O)c2ccc(Br)s2)n1 |  | inconclusive [inhibitor, partial curve] |
| Cc1cc(C(=O)Nc2ccccc2N2CCCCC2)no1 |  | inconclusive [inhibitor, single point] |
| COc1cccc(-c2csc(Nc3ccc(Oc4ccccc4)cc3)n2)c1 |  | inconclusive [inhibitor, single point] |
| O=C(CN(c1ccccn1)S(=O)(=O)c1ccc(F)cc1)Nc1ccc(F)cc1F |  | inconclusive [inhibitor, partial curve] |
| CCn1cc(C(=O)N(C)Cc2ccccc2)c(=O)c2cc(S(=O)(=O)N3CCc4ccccc4C3)ccc21 |  | inconclusive [inhibitor, full curve, poor fit] |
| CCOc1ccc(-c2nc(N)nc(C)c2-c2ccc(OC)c(OC)c2)c(O)c1 |  | inconclusive [inhibitor, single point] |

From PubChem BioAssay AID686979 (National Center for Advancing Translational Sciences (NCATS), 2013)
